According to PubChem BioAssay AID624417 (National Center for Advancing Translational Sciences (NCATS), 2012):
Hit rate of the full screen: of about 410,000 compounds, about 6,400 (1.6%) were called active. The shares of active, inactive and inconclusive entries below differ from those in the screen. Calls come from the whole dose curve; as a rule, active = well fitted inhibition curve with a large enough effect; inconclusive = small, poorly fitted or top-dose-only effect; inactive = no such curve, though single readings can be large or run the other way. No potency is given beside an inconclusive call; the fits are too rough.

Each compound was assayed against Glucagon-like peptide 1 receptor (Homo sapiens) (UniProt P43220) (assay: qHTS of GLP-1 Receptor Inverse Agonists (Inhibition Mode)). Settings: HEK293 GLP-1R CRE-luciferase, luminescence, 24 h; Potency: GLP-1R form is constitutively active unless noted; activity change, negative = inhibition: at 38.3 µM (top of the series) unless noted.
Sequence of UniProt P43220 (P43220 whole entry, looked up): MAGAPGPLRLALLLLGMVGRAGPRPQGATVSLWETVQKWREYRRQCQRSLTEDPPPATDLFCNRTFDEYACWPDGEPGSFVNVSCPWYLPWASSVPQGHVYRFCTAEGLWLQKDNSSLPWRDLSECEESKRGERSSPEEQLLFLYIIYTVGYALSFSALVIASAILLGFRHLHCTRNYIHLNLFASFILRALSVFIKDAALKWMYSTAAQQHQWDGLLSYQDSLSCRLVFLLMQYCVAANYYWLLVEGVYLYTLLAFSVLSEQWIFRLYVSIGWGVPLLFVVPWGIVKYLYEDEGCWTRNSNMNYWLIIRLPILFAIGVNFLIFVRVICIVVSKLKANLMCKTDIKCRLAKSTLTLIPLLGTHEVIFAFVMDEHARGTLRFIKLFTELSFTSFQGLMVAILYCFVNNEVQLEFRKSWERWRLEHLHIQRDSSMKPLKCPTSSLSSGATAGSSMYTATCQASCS
Outline: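 HEK293 cells stably co-expressing a cAMP-responsive luciferase reporter and constitutively active GLP-1R were seeded, incubated 12 h, then exposed to compounds for 24 h at 37 C. Luminescence was read 12 min after detection reagent; inverse agonists lower signal.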
% is set by controls: 0 for no effect and ±100 for the full control effect; potency is the fitted concentration of half-maximal effect; tags give direction and shape of the fitted curve.
Note: nearly all actives have a fitted effect of over 55% in size.

SMILES	Potency	activity change, negative = inhibition
C=CCc1cc(C)ccc1OCCCC(C(=O)OCC)C(=O)OCC	inconclusive [inhibitor, single point]	–
CNC(C)Cc1ccccc1Sc1ccc(O)cc1 (stereo not given)	inconclusive [inhibitor, partial curve, poor fit]	–
CC(c1nc2ccccc2c(=O)[nH]1)N(C)CCOc1ccc(Cl)cc1 (stereo not given)	inconclusive [inhibitor, single point]	–
Cc1cccc2nc(-c3ccccc3)c(-c3ccc(CN4CCC(n5c(=O)[nH]c6ccccc65)CC4)cc3)nc12	inconclusive [inhibitor, single point]	–
CCCCOP(=O)(c1ccc(N(C)C)cc1)C(Nc1ccccc1)c1ccccc1 (stereo not given)	inconclusive [inhibitor, single point]	–
CN1CCN(c2ccc([N+](=O)[O-])c(NCC3CCCO3)c2)CC1 (stereo not given)	inconclusive [inhibitor, single point]	–
COc1ccc(O)c(CN2CCCC(C(=O)c3sccc3C)C2)c1 (stereo not given)	inconclusive [inhibitor, single point]	–
COc1ccccc1CNCCc1ccc(F)cc1	inconclusive [inhibitor, single point]	–
Cc1ccccc1NS(=O)(=O)c1ccc(OCC(=O)N2CCN(C)CC2)cc1	inconclusive [inhibitor, partial curve, poor fit]	–
COc1ccc(OC(=O)N(C)C[C@@H]2OCc3ccccc3-c3c(n(C)c4ccccc34)C(=O)N([C@H](C)CO)C[C@@H]2C)cc1	inconclusive [inhibitor, partial curve, poor fit]	–
Cc1cccc(CN2CCN(c3ccc(Cl)cc3)CC2)c1	inconclusive [inhibitor, partial curve, poor fit]	–
CC(C)OC(=O)c1c(N)n(Cc2ccco2)c2nc3ccccc3nc12	–	inactive: 33.2%
Cc1cc(C)cc(NC(=O)Cn2cc(C(=O)c3cccs3)c3ccccc32)c1	inconclusive [inhibitor, single point]	–
CCCCC[C@H]1CCCCC[C@@H](O)C[C@@H](O)[C@@H](O)/C=C/C(=O)O1	–	inactive: -5.32% [at 38.3 µM, GLP-1R form is constitutively active]
CC(C)c1ccc(C2NCc3ccccc3-n3cccc32)cc1 (stereo not given)	inconclusive [inhibitor, partial curve, poor fit]	–
Fc1ccccc1CN1CCN(c2ccc(Cl)cc2)CC1	inconclusive [inhibitor, partial curve, poor fit]	–
Cc1ccc(S(=O)(=O)N(CC(=O)NCCSc2ccc(Cl)cc2)c2ccccc2C)cc1	active: 11.2 µM	–
CN1CCN(c2cc(N3CCCCCC3)c(F)cc2[N+](=O)[O-])CC1	inconclusive [inhibitor, single point]	–
CC(C)OC(=O)C1C2c3ccccc3C(c3ccccc32)C1C(=O)O (stereo not given)	inconclusive [inhibitor, partial curve, poor fit]	–
O=C(CN1CC=C(c2ccccc2)CC1)NC(=O)NC1CCCCC1	inconclusive [inhibitor, single point]	–

SMILES	Potency	activity change, negative = inhibition
CC(C)(C)NC(=O)CN1CCCN(C(=O)COc2ccc(Cl)c3ccccc23)CC1	inconclusive [inhibitor, partial curve, poor fit]	–
CC1=CC(=C2C(=O)NC(=S)NC2=O)C=C(C(F)(F)F)N1Cc1ccccc1	inconclusive [inhibitor, full curve, poor fit]	–
CCCCCn1c(=O)c(C(=O)Nc2nc(CC(=O)OCC)cs2)c(O)c2ccccc21	–	inactive: 4.15%
Cc1ccc2c(c1)C1CN(C)CCC1N2C(=O)c1ccccc1NS(=O)(=O)c1ccc(F)cc1C (stereo not given)	inconclusive [inhibitor, partial curve]	–
CNC(=O)O/N=C(\N)Cc1csc2ccc(Cl)cc12	inconclusive [inhibitor, single point]	–
Cc1ccnc(-n2c(-c3ccccc3)nc3ccccc3c2=O)c1	inconclusive [inhibitor, full curve]	–
CC(C)c1ccc(OCC(=O)N2CCN(CCc3ccccn3)CC2)cc1	inconclusive [inhibitor, single point]	–
CCC1C(c2cc(OC)c(OC)c(OC)c2)c2cc3c(cc2OC1N1CCCC1)OCO3 (stereo not given)	inconclusive [inhibitor, full curve, poor fit]	–
COc1cccc(CNCCc2ccc(F)cc2)c1	inconclusive [inhibitor, single point]	–
COc1cc(CC2C(=O)N(C)C(=O)N(C)C2=O)ccc1OCc1ccccc1	–	inactive: 0%
C/C(=N\NC(=O)c1ccccc1Cl)c1c(O)n(C2CCCCC2)c(=O)[nH]c1=O	inconclusive [inhibitor, single point]	–
O=C(Nc1ccccc1)c1cc(C2CCCN(C(=O)C3CC3)C2)on1 (stereo not given)	inconclusive [inhibitor, partial curve, poor fit]	–
O=c1c2cc(N3CCOCC3)ccc2[nH]c(=S)n1Cc1ccc(Cl)cc1	inconclusive [inhibitor, partial curve, poor fit]	–
CCc1cc2c(cc1-c1csc(C/C(N)=N/O)n1)C(C)(C)CCC2(C)C	inconclusive [inhibitor, single point]	–
N#Cc1c(/N=C/C2C(=O)NC(=S)NC2=O)sc2c1CCCC2	–	inactive: 21.2%
Cc1ccc(C[n+]2c(-c3ccc(C)cc3)cc(-c3ccc(C)cc3)cc2-c2ccc(C)cc2)cc1	inconclusive [inhibitor, full curve, poor fit]	–
Cc1ccc(-c2nc(CS(=O)CC(=O)NC3CCCC(C)C3C)c(C)o2)cc1 (stereo not given)	inconclusive [inhibitor, partial curve, poor fit]	–
COc1ccc(OCC(=O)N2CCN(Cc3ccc(SC)cc3)CC2)cc1	inconclusive [inhibitor, partial curve, poor fit]	–
CCc1cccc(CC)c1N(COC)C(=O)CCl	inconclusive [inhibitor, single point]	–
CN(C)C(=O)Oc1ccc(Br)c2ccccc12	inconclusive [inhibitor, partial curve]	–

SMILES	Potency	activity change, negative = inhibition
CCCCn1c(O)c(C=NC2CC3CCC2(C)C3(C)C)c(=O)[nH]c1=O (stereo not given)	active: 5.62 µM [setting not given]	–
CNc1ccc2oc(C[C@H]3O[C@@]4(CC[C@H]3C)O[C@H]([C@H](C)C(=O)c3ccc[nH]3)[C@H](C)C[C@H]4C)nc2c1C(=O)O	inconclusive [inhibitor, full curve, poor fit]	–
COc1cc(OC)c(NS(=O)(=O)c2cc(-c3cnc(C4CC4)o3)ccc2C)cc1Cl	inconclusive [inhibitor, partial curve, poor fit]	–
CN(C)CC/C=C1\c2ccccc2Sc2ccc(Cl)cc21	inconclusive [inhibitor, single point]	–
O=C1Nc2cc(C(=O)N3CCC4(CC3)OCCO4)ccc2S/C1=C\c1ccccc1	inconclusive [inhibitor, full curve, poor fit]	–
COC(=O)C1=C(c2ccc(F)cc2OCc2ccccc2)C[C@@H]2CC[C@H]1N2C(=O)NCCCOC(C)C	inconclusive [inhibitor, partial curve, poor fit]	–
O=[N+]([O-])c1ccc(N2CCOCC2)c2c1no[n+]2[O-]	inconclusive [inhibitor, partial curve, poor fit]	–
Cc1ccc([C@H]2C[C@H](n3cc(C4CC4)nn3)[C@@H](O)CN2Cc2cccs2)cc1	inconclusive [inhibitor, single point]	–
Cc1ccccc1-n1c(/C=C/c2ccc(N(C)C)cc2)nc2ccccc2c1=O	active: 8.91 µM [setting not given]	–
Nc1ccc2nc3c(c(Cl)c2c1)CCCC3	inconclusive [inhibitor, partial curve]	–
CN(C)c1ccc(CN2CC=C(c3ccc(F)cc3)CC2)cc1	inconclusive [inhibitor, partial curve, poor fit]	–
COc1ccc(C(=O)NCCn2cc(SCc3ccc(C(F)(F)F)cc3)c3ccccc32)cc1OC	inconclusive [inhibitor, full curve, poor fit]	–
C=C1C(=O)O[C@@H]2C[C@@H](C)[C@H]3C=CC(=O)[C@]3(O)C[C@@H]12	–	inactive: -6.01%
Cc1cccc(CCNCc2cc3cccc(C)c3[nH]c2=O)c1	–	inactive: -25.5%
Cc1ccc2c(c1)CC1(CN2C)C(=O)NC(=O)N(c2ccccc2C)C1=O (stereo not given)	–	inactive: -13%
CCCCCC1CC(CC(=O)NC(=S)Nc2ccc([N+](=O)[O-])cc2)C(=O)O1 (stereo not given)	inconclusive [inhibitor, partial curve, poor fit]	–
CCOC(=O)[C@]12Cc3cc(C)ccc3[C@H]1N(Cc1ccccc1)C(=O)c1ccccc12	inconclusive [inhibitor, partial curve, poor fit]	–
CC1Cc2cc(S(=O)(=O)N(Cc3ccccc3)C(C)C)ccc2N1C(=O)C1CCC1 (stereo not given)	inconclusive [inhibitor, single point]	–
Cc1ccc(-c2cc(-c3ccc(C)cc3)[n+](C)o2)cc1	inconclusive [inhibitor, partial curve, poor fit]	–
CC(C(=O)c1ccccc1)N1C(=O)c2ccccc2C1=O (stereo not given)	–	inactive: 19.2%
